Reference: PubChem BioAssay AID504832 (National Center for Advancing Translational Sciences (NCATS), 2011)
Screen size: about 310,000 compounds; about 18,000 (5.8%) were called active. The shares of active, inactive and inconclusive entries below differ from those in the screen. Calls follow the shape of the dose curve; as a rule, active = well fitted inhibition curve with a large enough effect; inconclusive = small, poorly fitted or top-dose-only effect, or another doubt; inactive = no such curve, though single readings can be large or run the other way. Potencies of inconclusive entries are left out as doubtful fits.

Experiment: Primary qHTS for delayed death inhibitors of the malarial parasite plastid, 48 hour incubation
Conditions: P. falciparum luciferase growth in erythrocytes; series mostly up to 28.7 µM; activity change, negative = inhibition: at the top concentration
Procedure, shortened: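 Erythrocytes infected with P. falciparum carrying an integrated firefly luciferase reporter (2% hematocrit, 0.1% parasitemia final) were exposed to compounds in RPMI 1640 with 0.5% Albumax at 37 C, 5% CO2. Growth inhibition was scored as reduced luminescence.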
% is scaled to controls: 0 for no effect and ±100 for the full control effect; potency is read from the fitted curve at half-maximal effect; tags tell the direction and shape of the fitted curve.

SMILES	Potency	activity change, negative = inhibition
CCOc1cccc(CN2CCC(n3nccc3NC(=O)c3ccc4c(c3)OCO4)CC2)c1	inconclusive [inhibitor, single point]	
Cc1cccc(-c2n[nH]c(=S)n2/N=C/c2ccc(C)o2)c1		inactive: -9.03%
CCOc1ccc(NS(=O)(=O)c2ccc(C(=O)N3CCCCC3)cc2)cc1	inconclusive [inhibitor, single point]	
CCOc1cccc(OCCCCN2CCOCC2)c1	inconclusive [inhibitor, full curve]	
COc1ccc(C(CNc2ccc(S(=O)(=O)N3CCCC3)cc2[N+](=O)[O-])N2CCCC2)cc1 (stereo not given)	inconclusive [inhibitor, single point]	
CCCN(CC(=O)Nc1ccccc1C)C(=O)CCN1C(=O)c2cccc([N+](=O)[O-])c2C1=O		inactive: 5.28%
COc1ccc(-c2n[nH]c3c2CN(C(=O)c2ccc(OC)c(OC)c2)CC3)cc1	inconclusive [inhibitor, partial curve, poor fit]	
COc1ccc2nc(C)cc(NCc3cccc(C(F)(F)F)c3)c2c1	active: 0.928 µM	
CC1=C(C(=O)c2ccccc2)C(c2cn(-c3ccccc3)nc2-c2ccc(Cl)cc2)NC(=S)N1 (stereo not given)	inconclusive [inhibitor, partial curve, poor fit]	
CCc1ccc(/C=C2/SC(=S)N(CCC(=O)NCCCN3CCOCC3)C2=O)cc1	inconclusive [inhibitor, partial curve, poor fit]	
COc1ccccc1NC(=O)Nc1nnc(CC(=O)Nc2ccccc2C)s1	inconclusive [inhibitor, partial curve, poor fit]	
CC(C)CCNC(=O)C(=O)Nc1cc2c3c(c1)CCC(=O)N3CCC2		inactive: -4.95%
COC(=O)c1ccsc1NC(=O)CCS(=O)(=O)c1ccccc1		inactive: -1.37%
COc1cc(CNCCO)ccc1OCC(=O)Nc1ccc(Br)cc1	inconclusive [inhibitor, single point]	
O=C(/C=C/c1cn(-c2ccccc2)nc1-c1cccnc1)N1CCCCC1	inconclusive [inhibitor, single point]	
CCOC(=O)c1ccc(NC(=O)c2nc[nH]c2C(=O)N(CC)CC)cc1	inconclusive [inhibitor, single point]	
CCOc1ccc(NC(=O)CSc2nc3c(c(=O)n2-c2ccccc2OC)SCC3)cc1	inconclusive [inhibitor, single point]	
CC(/C=C/c1ccccc1)=N/NC(=O)c1cc([N+](=O)[O-])cc([N+](=O)[O-])c1	inconclusive [inhibitor, full curve, poor fit]	
COc1ccc(OCc2nnc(SCC(=O)c3c(N)n(C)c(=O)n(C)c3=O)n2-c2ccccc2F)cc1	inconclusive [inhibitor, partial curve]	
C=CCn1c(SCc2cccc(C#N)c2)nnc1-c1ccccc1O	inconclusive [inhibitor, single point]	
C=CCn1c(SCC(=O)c2cc(C)n(CC3CCCO3)c2C)nnc1-c1ccccc1 (stereo not given)	inconclusive [inhibitor, single point]	
CC1(c2ccncc2)Nc2ccccc2-c2nc3ccccc3n21 (stereo not given)	active: 3.29 µM	

SMILES	Potency	activity change, negative = inhibition
O=C1c2ccccc2CCC12N=NCC2c1ccccc1 (stereo not given)	inconclusive [inhibitor, partial curve, poor fit]	
COCCCNC(=S)N1CCN(Cc2ccc3c(c2)OCO3)CC1		inactive: 10.8%
CC(=O)Nc1ccc(C2Nc3ccccc3C(=O)N2C2CCCCC2)cc1 (stereo not given)	inconclusive [inhibitor, partial curve]	
O=C(Cc1ccccc1)NNC(=O)Nc1ccc(Cl)c(Cl)c1		inactive: 19.9%
CN(CCO)CC(O)Cn1cnc2c1c(=O)n(C)c(=O)n2C (stereo not given) (tested in a mixture with another compound)	inconclusive [inhibitor, single point]	
CC(C)C(C(=O)Nc1ccncc1)c1ccc(Cl)cc1 (stereo not given)	active: 3.29 µM	
CCOC(=O)[C@H]1[C@H]2COc3cc(OC)ccc3[C@@H]2N2C(=O)CN(Cc3ccco3)C(=O)[C@@]12C	inconclusive [inhibitor, single point]	
O=C(CCCn1c(=S)[nH]c2ccsc2c1=O)Nc1ccc2c(c1)OCCO2		inactive: 113%
Cc1cc(C)cc(N(C(=O)c2csnn2)C(C(=O)NC2CCCCC2)c2cccnc2)c1 (stereo not given)	inconclusive [inhibitor, single point]	
O=C(Nc1cccc(S(=O)(=O)C(F)F)c1)c1ccc(Cl)c(S(=O)(=O)N2CCOCC2)c1	active: 9.28 µM	
C=C(C)CNC(=S)N/N=C/c1ccc(N2CCOCC2)cc1	inconclusive [inhibitor, single point]	
CCc1cccc(NC(=O)CCCn2nc(CC)n3c(cc4occc43)c2=O)c1	inconclusive [inhibitor, single point]	
Cc1ncsc1CCC(=O)N1CCCC(Nc2ccc(C(C)C)cc2)C1 (stereo not given)	inconclusive [inhibitor, partial curve, poor fit]	
CC1(C)OC(=O)C(=Cc2ccc(-c3ccc(Cl)c(C(=O)O)c3)o2)C(=O)O1	active: 14.7 µM	
Cc1ccnc(NC(=O)C2CCN(S(=O)(=O)c3ccc(C)c(C)c3)CC2)c1		inactive: 34%
COc1ccc(C2C(C#N)=C(C)NC3=C2C(=O)CC(C)(C)C3)c(OC)c1 (stereo not given)		inactive: -28.2%
CSCCC(NC(=O)c1ccccc1)c1nc(-c2ccccc2)no1 (stereo not given)	inconclusive [inhibitor, single point]	
COc1ccc(OC)c(NC(=O)CSc2nc3ccccc3cc2Cc2ccccc2)c1	inconclusive [inhibitor, partial curve, poor fit]	
CNC(=S)N1CCN(c2nc3ccccc3s2)CC1		inactive: 107%
O=C(COC(=O)CNC(=O)c1ccc(Cl)c([N+](=O)[O-])c1)NC(=O)CN1CCCC1=O		inactive: -26.7%
O=C(N/N=C/c1ccc(F)cc1)c1ccc(OCc2ccccc2)cc1	inconclusive [inhibitor, partial curve]	
CC(Sc1ncccn1)C(=O)N1CCc2ccccc21 (stereo not given)	inconclusive [inhibitor, single point]	

SMILES	Potency	activity change, negative = inhibition
Fc1cccc(CCN2CCNC[C@H]2Cc2cccc3ccccc23)c1	inconclusive [inhibitor, single point]	
COc1ccc2c(c1)c(C(=O)N/N=C/c1cccc(Br)c1)c(C)n2C	inconclusive [inhibitor, partial curve, poor fit]	
Cc1ccc(N(CC(=O)NCCSCc2ccco2)S(=O)(=O)c2ccc(C)cc2)cc1	inconclusive [inhibitor, partial curve, poor fit]	
O=C1CCC(c2ccccc2)(c2ccccc2)CC1	inconclusive [inhibitor, partial curve, poor fit]	
Cc1ccc([C@@H]2CC=C(C(=O)O)CN2S(=O)(=O)c2ccccc2C)cc1	inconclusive [inhibitor, partial curve, poor fit]	
Cc1ccc(-n2ncc3c(SCc4cccnc4)ncnc32)c(C)c1	inconclusive [inhibitor, single point]	
COc1ccccc1CNC(=O)c1cc(C(C)C)nc2ccccc12	inconclusive [inhibitor, partial curve, poor fit]	
O=C(CCc1ccc(S(=O)(=O)NC2CCCCC2)cc1)NCc1cccnc1		inactive: -11.5%
Cc1cc(NC(=O)c2cc(-c3ccccc3Cl)nc3ccccc23)no1	active: 13.1 µM	
CN(C)S(=O)(=O)N1CCN(c2ccc([N+](=O)[O-])c(NC3CC3)c2)CC1	active: 4.15 µM	
CCOC(=O)c1[nH]c(C)c(C(=O)N2CCN(c3cccc(Cl)c3)CC2)c1C	active: 10.4 µM	
N#CC1=C(SCc2ccccc2)NC2=C(C(=O)CCC2)C1c1ccc2c(c1)OCO2 (stereo not given)	inconclusive [inhibitor, partial curve, poor fit]	
CC1=NN(c2ccccc2)C(=O)C1N=Nc1ccc(S(N)(=O)=O)cc1 (stereo not given)	inconclusive [inhibitor, full curve, poor fit]	
COc1ccc(S(=O)(=O)N(CC(=O)NCc2ccncc2)Cc2ccccc2)cc1	inconclusive [inhibitor, partial curve, poor fit]	
COc1cc(C(=O)NCCCNc2nc3cc(C)c(C)cc3cc2C#N)cc(OC)c1OC	inconclusive [inhibitor, single point]	
FC(F)(F)c1ccc(Cl)c(N/N=C/c2ccc(N3CCOCC3)s2)c1	inconclusive [inhibitor, single point]	
CN1CCN(/C=N/c2c(C#N)cnn2C)CC1	inconclusive [inhibitor, single point]	
Cc1cc(Nc2ccc3c(c2)OCCO3)n2ncnc2n1	inconclusive [inhibitor, partial curve, poor fit]	
CN(C)CCCN(C(=O)c1ccc2c(c1)CCCC2)c1nc2ccc(Cl)cc2s1	active: 8.28 µM	
CCc1nnc(NC(=O)CSc2nnc(-c3ccccc3O)n2-c2ccc(C)cc2C)s1	inconclusive [inhibitor, single point]	
Cc1cc(S(=O)(=O)NC2CCCCC2)ccc1OCC(=O)NCc1ccccn1	active: 13.1 µM	
